# Reference: ChEMBL document CHEMBL4888484, “Replenishing the malaria drug discovery pipeline: Screening and hit evaluation of the MMV Hit Generation Library 1 (HGL1) against asexual blood stage Plasmodium falciparum ,using a nano luciferase reporter read-out” (2022)
# In all, about 150,000 compounds went through this assay and about 540 (0.36%) showed an effect of 50% or more. Some of the results follow.
# Test system: Plasmodium falciparum
# Test: Primary screen in NF54 nanoGlo assay, in single point, at 2uM, 72h; a lower Z score goes with more inhibition
# Format: functional, Erythrocyte
# Conditions: timepoint 72 hour
SMILES,% Inhibition [%],Z score
O=C1NCCCC[C@@H]1NCc1cnc(N2CCOCC2)nc1,-7,0.78
CCC[C@H](C)NS(=O)(=O)CCN1CCOC1=O,-8,1.2
Cc1cnc(C[C@H]2CCCN(C(=O)c3ccoc3)C2)n1C(C)C,6,-0.87
Cc1ccc(C(=O)N2CCC3(CCCCCC3)C2)cc1OCCN,-17,2.5
Cc1ccnc(NCCNc2ccnc(C(=O)N3CCOCC3)c2)c1,0,-0.01
COc1cccc(C2=C[C@@H](c3ccc(Cl)cc3)n3nnnc3N2)c1,-4,0.46
O=C(Nc1ccsc1C(=O)NC1CCCC1)c1cnccn1,-2,0.32
COc1ccc(C(=O)CCC(=O)N2C[C@H]3CC[C@@H](C2)N(C)C3)cc1,-13,1.24
Cc1ccc(S(=O)(=O)N(CC(=O)N2CCOCC2)CC(=O)N2CCOCC2)cc1,-15,1.87
COC1(Cn2ncc3ncccc32)CCC1,-6,0.65
c1ccc(CN2CC3CCC(NCc4cncs4)C3C2)cc1 (stereo unspecified),0,-0.03
COc1ccc(CC(=O)N2CCN(S(=O)(=O)c3c(C)nn(C(C)C)c3C)CC2)cc1Cl,-5,0.5
C[C@@H](C(=O)Nc1cccc2c1OCC(=O)N2)n1nnnc1C(C)(C)C,7,-1.43
Cc1cc(-c2ccc([C@H](C)N3CCCCC3)cc2)cnc1-n1cnnc1,6,-0.78
CC(C)N(Cc1ccccc1)C(=O)Cc1csc(-c2cccnc2)n1,-7,0.9
O=S(=O)(NC[C@H]1Cc2ccccc21)c1cccnc1,-9,1.8
O=S(=O)(c1ccc(F)cc1)N1CCN(c2cnn3cnnc3c2)CC1,-7,1.01
[2H]c1c([2H])c([2H])c(C(=O)c2sc(N3CCCCCC3)nc2-c2ccccc2)c([2H])c1[2H],-3,0.43
CCOC(=O)N1CCC(N2CCC3(CC2)C[C@@H]3C(=O)Nc2cc(C)cc(C)c2)CC1,-12,1.34
Cc1n[nH]c(NC(=O)COc2ccc(F)c(F)c2)c1-c1cccc(Cl)c1,-7,0.89
CC(C)c1ccc(CN[C@@H](C)CCc2ccco2)cc1,0,0.03
C=CCc1cc(-c2nccn2Cc2cc(O)ncn2)cc(OC)c1O,4,-0.57
CCCc1nc(C(=O)N2CCC(OC)(c3ccccc3)CC2)cs1,12,-1.52
O=C1C2CC=CCC2C(=O)N1c1ccc(OCc2ccccc2)cc1 (stereo unspecified),2,-0.34
Cc1cc(C)cc(NC(=O)Cn2nc3c(N4CCc5ccccc5C4)nccn3c2=O)c1,-15,1.46
Cc1ccc(OC2CCN(C(=O)Cc3cccc4ccccc34)CC2)nn1,-16,3.05
CNC(=O)c1cn(C[C@@H]2CC(F)(F)CN2Cc2cc(F)cc(F)c2)nn1,-3,0.51

SMILES,% Inhibition [%],Z score
CCc1nc2c(c(OC3CCN(S(=O)(=O)c4cccc(OC)c4)CC3)n1)CCOCC2,-8,1
O=C(NCCN1CCC(O)CC1)[C@H]1C[C@@H]1c1ccccc1,-8,1.2
Cc1cc(F)ccc1S(=O)(=O)N1CC(N2C(=O)COC2=O)C1,-6,1.07
O=C(NCc1ccccc1)c1nc(-c2ccnc(N3CCOCC3)c2)no1,3,-0.45
C[C@H]1CN(Cc2cn3ccccc3c2C#N)CCO1,0,0.03
Cc1nc(C(C)C)oc1C(=O)N1CCC[C@@]2(CCOC2)C1,-14,1.67
CCS(=O)(=O)N[C@H](c1cccs1)C(C)(C)C,-9,0.89
Brc1cnn([C@H]2CCOC2)c1,-9,1.74
N#C[C@@H](C(=O)c1ccc2c(c1)COC2)c1ccccn1,-5,0.47
O=C(c1ccoc1)N1CCOc2ccc(N3CCCC3)cc2C1,-4,0.81
COCc1cn([C@@H]2CC[C@H]3CCOc4ccccc4C(=O)N4CCN(C5CCC5)C[C@H]4C(=O)NC[C@H]2O3)nn1,-7,0.87
CC(C)c1nnc(N2CCN(C(=O)c3cccc(F)c3)CC2)o1,-6,0.96
O=C(CCC(=O)c1ccccc1)N[C@@H]1COC2(CCCCC2)C1,-24,2.57
O=C(Nc1ccc(F)cc1)[C@@H]1CNCCN1C(=O)Cc1c[nH]c2ccccc12,6,-1.09
CN1CCN(C(=O)c2ccc(CO)cc2)C[C@@]12CCC(=O)N(CC1CC1)CC2,-8,0.8
Cc1ccc(C(=O)N2C[C@H](C(=O)O)[C@@H](c3ccc4c(c3)OCO4)C2)cc1F,-10,1.32
CC1(C)Cc2nc3[nH]nc(N)c3cc2CO1,-8,1.26
Cc1cnn([C@H]2CCCN(S(=O)(=O)c3c(C)cccc3Cl)C2)c1,-7,1.26
Cc1c(CN2CCC3(CC2)c2ccccc2C[C@@H]3O)cc(C#N)n1C,-17,2.31
CC(O)C1CCCCN1S(=O)(=O)c1ccc(Cl)c2ncccc12 (stereo unspecified),4,-0.56
N#Cc1nccnc1N[C@H]1CCCN(CC(F)(F)F)C1,-11,1.83
CCOc1cccc(-n2cc(-c3ccccc3)nc2NC(=O)CN(Cc2ccccc2)C(=O)c2ccc(Cl)cc2)c1,-5,0.59
CC1c2[nH]c3ccccc3c2C(c2ccccc2Cl)CN1C(=O)CCn1cncn1 (stereo unspecified),-3,0.44
COc1ccc(-n2ccc(=O)c3c2CCCC3=O)cc1,7,-0.83
CC(C)[C@H]1CN(CCC(=O)NC2CC2)C[C@@H]1Nc1ccc(C#N)cn1,-24,2.1
CCc1ncc(CNC(=O)c2ccc(C)c(CO)c2)o1,-4,0.6
